According to the supplement of paper PMC8728848:
Some of the results follow.

Tests used:
Assay in all cases: glycan array binding signal (z-score within array); higher = stronger binding
Details in all cases: glycan notation: IUPAC condensed, linker removed
[1] = target: GlcNAc(a1-6)Gal(b1-4)GlcNAc
In short: (§1)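 Glycan array data came from 3228 arrays in the Consortium for Functional Glycomics database, and only arrays with an available protein sequence were kept. Glycan names were put into IUPAC-condensed notation, and columns mapping to the same glycan were averaged. The binding signal is a within-array Z-score, averaged across arrays of one protein sequence run at different concentrations or buffers and across linkers. A negative Z-score can be read as non-binding.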

[2] = target: GlcNAc(b1-2)Gal(b1-3)GalNAc
In short: as §1

[3] = target: GlcNAc(b1-2)Man(a1-3)[GlcNAc(b1-2)Man(a1-6)]Man(b1-4)GlcNAc(b1-4)GlcNAc
In short: as §1

[4] = target: GlcNAc(b1-2)Man(a1-3)[GlcNAc(b1-2)Man(a1-6)]Man(b1-4)GlcNAc(b1-4)[Fuc(a1-6)]GlcNAc
In short: as §1

[5] = target: GlcNAc(b1-2)Man(a1-3)[GlcNAc(b1-4)][GlcNAc(b1-2)Man(a1-6)]Man(b1-4)GlcNAc(b1-4)GlcNAc
In short: as §1

[6] = target: GlcNAc(b1-2)Man(a1-3)[GlcNAc(b1-4)][GlcNAc(b1-2)Man(a1-6)]Man(b1-4)GlcNAc(b1-4)[Fuc(a1-6)]GlcNAc
In short: as §1

[7] = target: GlcNAc(b1-2)[GlcNAc(b1-4)]Man(a1-3)[GlcNAc(b1-2)Man(a1-6)]Man(b1-4)GlcNAc(b1-4)GlcNAc
In short: as §1

[8] = target: GlcNAc(b1-2)[GlcNAc(b1-4)]Man(a1-3)[GlcNAc(b1-4)][GlcNAc(b1-2)Man(a1-6)]Man(b1-4)GlcNAc(b1-4)GlcNAc
In short: as §1

[9] = target: GlcNAc(b1-2)[GlcNAc(b1-4)]Man(a1-3)[GlcNAc(b1-4)][GlcNAc(b1-2)[GlcNAc(b1-6)]Man(a1-6)]Man(b1-4)GlcNAc(b1-4)GlcNAc
In short: as §1

[10] = target: GlcNAc(b1-2)[GlcNAc(b1-4)]Man(a1-3)[GlcNAc(b1-4)][GlcNAc(b1-2)[GlcNAc(b1-6)]Man(a1-6)]Man(b1-4)GlcNAc(b1-4)[Fuc(a1-6)]GlcNAc
In short: as §1

[11] = target: GlcNAc(b1-2)[GlcNAc(b1-6)]Man(a1-6)[GlcNAc(b1-2)Man(a1-3)]Man(b1-4)GlcNAc(b1-4)GlcNAc
In short: as §1

[12] = target: GlcNAc(b1-2)[GlcNAc(b1-6)]Man(a1-6)[GlcNAc(b1-2)Man(a1-3)]Man(b1-4)GlcNAc(b1-4)[Fuc(a1-6)]GlcNAc
In short: as §1

[13] = target: GlcNAc(b1-2)[GlcNAc(b1-6)]Man(a1-6)[GlcNAc(b1-4)][GlcNAc(b1-2)Man(a1-3)]Man(b1-4)GlcNAc(b1-4)GlcNAc
In short: as §1

GlcNAc(b1-3)Fuc = target: GlcNAc(b1-3)Fuc
In short: as §1

GlcNAc(b1-3)Gal = target: GlcNAc(b1-3)Gal
In short: as §1

[14] = target: GlcNAc(b1-3)Gal(b1-3)GalNAc
In short: as §1

GlcNAc(b1-3)Gal(b1-4)Glc = target: GlcNAc(b1-3)Gal(b1-4)Glc
In short: as §1

[15] = target: GlcNAc(b1-3)Gal(b1-4)GlcNAc
In short: as §1

[16] = target: GlcNAc(b1-3)Gal(b1-4)GlcNAc(b1-2)Man(a1-3)[GlcNAc(b1-3)Gal(b1-4)GlcNAc(b1-2)Man(a1-6)]Man(b1-4)GlcNAc(b1-4)GlcNAc
In short: as §1

[17] = target: GlcNAc(b1-3)Gal(b1-4)GlcNAc(b1-2)Man(a1-3)[GlcNAc(b1-3)Gal(b1-4)GlcNAc(b1-2)Man(a1-6)]Man(b1-4)GlcNAc(b1-4)[Fuc(a1-6)]GlcNAc
In short: as §1

[18] = target: GlcNAc(b1-3)Gal(b1-4)GlcNAc(b1-2)[GlcNAc(b1-3)Gal(b1-4)GlcNAc(b1-6)]Man(a1-6)[GlcNAc(b1-3)Gal(b1-4)GlcNAc(b1-2)Man(a1-3)]Man(b1-4)GlcNAc(b1-4)GlcNAc
In short: as §1

[19] = target: GlcNAc(b1-3)Gal(b1-4)GlcNAc(b1-3)Gal(b1-4)GlcNAc
In short: as §1

[20] = target: GlcNAc(b1-3)Gal(b1-4)GlcNAc(b1-3)Gal(b1-4)GlcNAc(b1-2)Man(a1-3)[GlcNAc(b1-3)Gal(b1-4)GlcNAc(b1-3)Gal(b1-4)GlcNAc(b1-2)Man(a1-6)]Man(b1-4)GlcNAc(b1-4)GlcNAc
In short: as §1

[21] = target: GlcNAc(b1-3)Gal(b1-4)GlcNAc(b1-3)Gal(b1-4)GlcNAc(b1-2)Man(a1-3)[GlcNAc(b1-3)Gal(b1-4)GlcNAc(b1-3)Gal(b1-4)GlcNAc(b1-2)Man(a1-6)]Man(b1-4)GlcNAc(b1-4)[Fuc(a1-6)]GlcNAc
In short: as §1

[22] = target: GlcNAc(b1-3)Gal(b1-4)GlcNAc(b1-3)Gal(b1-4)GlcNAc(b1-2)[GlcNAc(b1-3)Gal(b1-4)GlcNAc(b1-3)Gal(b1-4)GlcNAc(b1-6)]Man(a1-6)[GlcNAc(b1-3)Gal(b1-4)GlcNAc(b1-3)Gal(b1-4)GlcNAc(b1-2)Man(a1-3)]Man(b1-4)GlcNAc(b1-4)[Fuc(a1-6)]GlcNAc
In short: as §1

[23] = target: GlcNAc(b1-3)Gal(b1-4)GlcNAc(b1-3)Gal(b1-4)GlcNAc(b1-3)Gal(b1-4)GlcNAc(b1-2)Man(a1-3)[GlcNAc(b1-3)Gal(b1-4)GlcNAc(b1-3)Gal(b1-4)GlcNAc(b1-3)Gal(b1-4)GlcNAc(b1-2)Man(a1-6)]Man(b1-4)GlcNAc(b1-4)GlcNAc
In short: as §1

[24] = target: GlcNAc(b1-3)Gal(b1-4)GlcNAc(b1-3)Gal(b1-4)GlcNAc(b1-3)Gal(b1-4)GlcNAc(b1-2)Man(a1-3)[GlcNAc(b1-3)Gal(b1-4)GlcNAc(b1-3)Gal(b1-4)GlcNAc(b1-3)Gal(b1-4)GlcNAc(b1-2)Man(a1-6)]Man(b1-4)GlcNAc(b1-4)[Fuc(a1-6)]GlcNAc
In short: as §1

[25] = target: GlcNAc(b1-3)Gal(b1-4)GlcNAc(b1-3)Gal(b1-4)GlcNAc(b1-3)Gal(b1-4)GlcNAc(b1-2)[GlcNAc(b1-3)Gal(b1-4)GlcNAc(b1-3)Gal(b1-4)GlcNAc(b1-3)Gal(b1-4)GlcNAc(b1-6)]Man(a1-6)[GlcNAc(b1-3)Gal(b1-4)GlcNAc(b1-3)Gal(b1-4)GlcNAc(b1-3)Gal(b1-4)GlcNAc(b1-2)Man(a1-3)]Man(b1-4)GlcNAc(b1-4)[Fuc(a1-6)]GlcNAc
In short: as §1

[26] = target: GlcNAc(b1-3)Gal(b1-4)GlcNAc(b1-3)Gal(b1-4)GlcNAc(b1-3)Gal(b1-4)GlcNAc(b1-3)Gal(b1-4)GlcNAc(b1-2)Man(a1-3)[GlcNAc(b1-3)Gal(b1-4)GlcNAc(b1-3)Gal(b1-4)GlcNAc(b1-3)Gal(b1-4)GlcNAc(b1-3)Gal(b1-4)GlcNAc(b1-2)Man(a1-6)]Man(b1-4)GlcNAc(b1-4)GlcNAc
In short: as §1

[27] = target: GlcNAc(b1-3)Gal(b1-4)GlcNAc(b1-3)Gal(b1-4)GlcNAc(b1-3)Gal(b1-4)GlcNAc(b1-3)Gal(b1-4)GlcNAc(b1-2)Man(a1-3)[GlcNAc(b1-3)Gal(b1-4)GlcNAc(b1-3)Gal(b1-4)GlcNAc(b1-3)Gal(b1-4)GlcNAc(b1-3)Gal(b1-4)GlcNAc(b1-2)Man(a1-6)]Man(b1-4)GlcNAc(b1-4)[Fuc(a1-6)]GlcNAc
In short: as §1

[28] = target: GlcNAc(b1-3)Gal(b1-4)GlcNAc(b1-3)Gal(b1-4)GlcNAc(b1-3)Gal(b1-4)GlcNAc(b1-3)Gal(b1-4)GlcNAc(b1-2)[GlcNAc(b1-3)Gal(b1-4)GlcNAc(b1-3)Gal(b1-4)GlcNAc(b1-3)Gal(b1-4)GlcNAc(b1-3)Gal(b1-4)GlcNAc(b1-6)]Man(a1-6)[GlcNAc(b1-3)Gal(b1-4)GlcNAc(b1-3)Gal(b1-4)GlcNAc(b1-3)Gal(b1-4)GlcNAc(b1-3)Gal(b1-4)GlcNAc(b1-2)Man(a1-3)]Man(b1-4)GlcNAc(b1-4)[Fuc(a1-6)]GlcNAc
In short: as §1

[29] = target: GlcNAc(b1-3)Gal(b1-4)GlcNAc(b1-3)Gal(b1-4)GlcNAc(b1-3)GalNAc
In short: as §1

[30] = target: GlcNAc(b1-3)Gal(b1-4)GlcNAc(b1-3)GalNAc
In short: as §1

[31] = target: GlcNAc(b1-3)Gal(b1-4)GlcNAc(b1-3)[GlcNAc(b1-3)Gal(b1-4)GlcNAc(b1-3)]GalNAc
In short: as §1

[32] = target: GlcNAc(b1-3)Gal(b1-4)GlcNAc(b1-6)[Gal(b1-3)]GalNAc
In short: as §1

[33] = target: GlcNAc(b1-3)Gal(b1-4)GlcNAc(b1-6)[GlcNAc(b1-3)Gal(b1-3)]GalNAc
In short: as §1

[34] = target: GlcNAc(b1-3)Gal(b1-4)GlcNAc(b1-6)[GlcNAc(b1-3)]Gal(b1-4)GlcNAc
In short: as §1

GlcNAc(b1-3)GalNAc = target: GlcNAc(b1-3)GalNAc
In short: as §1

GlcNAc(b1-3)Man = target: GlcNAc(b1-3)Man
In short: as §1

[35] = target: GlcNAc(b1-3)[GlcNAc(b1-4)][GlcNAc(b1-6)]GlcNAc
In short: as §1

[36] = target: GlcNAc(b1-3)[GlcNAc(b1-6)]Gal(b1-4)GlcNAc
In short: as §1

[37] = target: GlcNAc(b1-3)[GlcNAc(b1-6)]GalNAc
In short: as §1

[38] = target: GlcNAc(b1-4)Gal(b1-4)GlcNAc
In short: as §1

GlcNAc(b1-4)GlcNAc = target: GlcNAc(b1-4)GlcNAc
In short: as §1

[39] = target: GlcNAc(b1-4)GlcNAc(b1-4)GlcNAc
In short: as §1

B1: VLRB.aGPA.23-GCN4-biotin (Petromyzon marinus) (protein)
chain: ACPSQCSCSGTEVNCAGKSLASVPAGIPTTTRVLYLNSNQITKLEPGVFDRLANLRELHLWGNQLVSLPPGVFDNLANLEKLWLNSNQLTSLPAGLFDRLVNLEHLGLCCMKLTELPSGAFDKLTRLKQLGLDQNQLKSIPDGAFARLPSLTHVWLHTNPWDCQCTDILYLSGWVAQHSSIVGEGWPWRHSPDSAKCSGTNTPVRAVTEASTSPSKCP
glycan array binding signal (z-score) [1]: -0.087
glycan array binding signal (z-score) [2]: -0.053
glycan array binding signal (z-score) [3]: -0.082
glycan array binding signal (z-score) [4]: -0.072
glycan array binding signal (z-score) [5]: -0.078
glycan array binding signal (z-score) [6]: -0.088
glycan array binding signal (z-score) [7]: -0.08
glycan array binding signal (z-score) [8]: -0.085
glycan array binding signal (z-score) [9]: -0.087
glycan array binding signal (z-score) [10]: -0.085
glycan array binding signal (z-score) [11]: -0.079
glycan array binding signal (z-score) [12]: -0.075
glycan array binding signal (z-score) [13]: -0.085
glycan array binding signal (z-score) (GlcNAc(b1-3)Fuc): -0.079
glycan array binding signal (z-score) (GlcNAc(b1-3)Gal): -0.077
glycan array binding signal (z-score) [14]: -0.075
glycan array binding signal (z-score) (GlcNAc(b1-3)Gal(b1-4)Glc): -0.076
glycan array binding signal (z-score) [15]: -0.085
glycan array binding signal (z-score) [16]: -0.079
glycan array binding signal (z-score) [17]: -0.074
glycan array binding signal (z-score) [18]: -0.058
glycan array binding signal (z-score) [19]: -0.078
glycan array binding signal (z-score) [20]: -0.043
glycan array binding signal (z-score) [21]: -0.072
glycan array binding signal (z-score) [22]: -0.064
glycan array binding signal (z-score) [23]: -0.076
glycan array binding signal (z-score) [24]: -0.059
glycan array binding signal (z-score) [25]: -0.065
glycan array binding signal (z-score) [26]: -0.076
glycan array binding signal (z-score) [27]: -0.07
glycan array binding signal (z-score) [28]: -0.068
glycan array binding signal (z-score) [29]: -0.084
glycan array binding signal (z-score) [30]: -0.089
glycan array binding signal (z-score) [31]: -0.073
glycan array binding signal (z-score) [32]: -0.075
glycan array binding signal (z-score) [33]: -0.085
glycan array binding signal (z-score) [34]: -0.087
glycan array binding signal (z-score) (GlcNAc(b1-3)GalNAc): -0.081
glycan array binding signal (z-score) (GlcNAc(b1-3)Man): -0.084
glycan array binding signal (z-score) [35]: -0.084
glycan array binding signal (z-score) [36]: -0.08
glycan array binding signal (z-score) [37]: -0.077
glycan array binding signal (z-score) [38]: -0.088
glycan array binding signal (z-score) (GlcNAc(b1-4)GlcNAc): -0.088
glycan array binding signal (z-score) [39]: -0.08
